# Source: the supplement of paper PMC8728848
# This is one part of the list.
# B1: Mg3lysM (Mycosphaerella graminicola) (protein)
# chain: APQNPPTSCSAAPQPTGTGSPGTVCGSTTFTNYTVKAGDTLGAIAKQYNSGVCDIAKVNGIDNPDYIKPDQVLSIPANCVTPDNTSCVKPVPVITNTCVLGVGSTYTVKSGDSFSAIATSFNITLASLEARNPQIPNYDLIFPGQVINTPLCPNSVCDSIGTYVIESGDIFYNLAQSNNVTVGQLESLNVNVNVTDIHPGDIIILPHNCHNITASA
# What was measured:
# Assay in all cases: glycan array binding signal (z-score within array); higher = stronger binding
# Conditions in all cases: glycan notation: IUPAC condensed, linker removed
# [1] = target: Fuc(a1-2)[GalNAc(a1-3)]Gal(b1-3)GlcNAc(b1-6)GalNAc
# Outline: (§1)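 The binding signal is a Z-score computed within each array and averaged over linkers. Arrays of the same protein sequence at different concentrations or buffers were also averaged together. Data originate from 3228 arrays in the Consortium for Functional Glycomics database, kept only where the protein sequence was available.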
# [2] = target: Fuc(a1-2)[GalNAc(a1-3)]Gal(b1-4)Glc
# Outline: as §1
# [3] = target: Fuc(a1-2)[GalNAc(a1-3)]Gal(b1-4)GlcNAc
# Outline: as §1
# [4] = target: Fuc(a1-2)[GalNAc(a1-3)]Gal(b1-4)GlcNAc(b1-2)Man
# Outline: as §1
# [5] = target: Fuc(a1-2)[GalNAc(a1-3)]Gal(b1-4)GlcNAc(b1-2)Man(a1-3)[Fuc(a1-2)[GalNAc(a1-3)]Gal(b1-4)GlcNAc(b1-2)Man(a1-6)]Man(b1-4)GlcNAc(b1-4)GlcNAc
# Outline: as §1
# [6] = target: Fuc(a1-2)[GalNAc(a1-3)]Gal(b1-4)GlcNAc(b1-2)Man(a1-3)[Fuc(a1-2)[GalNAc(a1-3)]Gal(b1-4)GlcNAc(b1-2)Man(a1-6)]Man(b1-4)GlcNAc(b1-4)[Fuc(a1-6)]GlcNAc
# Outline: as §1
# [7] = target: Fuc(a1-2)[GalNAc(a1-3)]Gal(b1-4)GlcNAc(b1-3)Gal(b1-4)GlcNAc
# Outline: as §1
# [8] = target: Fuc(a1-2)[GalNAc(a1-3)]Gal(b1-4)GlcNAc(b1-3)Gal(b1-4)GlcNAc(b1-3)Gal(b1-4)GlcNAc
# Outline: as §1
# [9] = target: Fuc(a1-2)[GalNAc(a1-3)]Gal(b1-4)GlcNAc(b1-3)GalNAc
# Outline: as §1
# [10] = target: Fuc(a1-2)[GalNAc(a1-3)]Gal(b1-4)GlcNAc(b1-3)[Fuc(a1-2)[GalNAc(a1-3)]Gal(b1-4)GlcNAc(b1-6)]GalNAc
# Outline: as §1
# [11] = target: Fuc(a1-2)[GalNAc(a1-3)]Gal(b1-4)GlcNAc(b1-6)GalNAc
# Outline: as §1
# [12] = target: Fuc(a1-2)[GalNAc(a1-3)]Gal(b1-4)[Fuc(a1-3)]GlcNAc
# Outline: as §1
# [13] = target: Fuc(a1-2)[GalNAc(a1-3)]Gal(b1-4)[Fuc(a1-3)]GlcNAc(b1-3)GalNAc
# Outline: as §1
# [14] = target: Fuc(a1-2)[GalNAc(a1-4)]Gal(b1-4)GlcNAc
# Outline: as §1
# [15] = target: Fuc(a1-2)[GalNAc(b1-3)]Gal
# Outline: as §1
# Fuc(a1-3)GlcNAc = target: Fuc(a1-3)GlcNAc
# Outline: as §1
# [16] = target: Fuc(a1-3)[Gal(b1-4)]Glc6S
# Outline: as §1
# [17] = target: Fuc(a1-3)[Gal(b1-4)]GlcNAc
# Outline: as §1
# [18] = target: Fuc(a1-3)[Gal(b1-4)]GlcNAc(b1-2)Man
# Outline: as §1
# [19] = target: Fuc(a1-3)[Gal(b1-4)]GlcNAc(b1-2)Man(a1-3)[Fuc(a1-3)[Gal(b1-4)]GlcNAc(b1-2)Man(a1-6)]Man(b1-4)GlcNAc(b1-4)GlcNAc
# Outline: as §1
# [20] = target: Fuc(a1-3)[Gal(b1-4)]GlcNAc(b1-2)Man(a1-3)[Fuc(a1-3)[Gal(b1-4)]GlcNAc(b1-2)Man(a1-6)]Man(b1-4)GlcNAc(b1-4)[Fuc(a1-6)]GlcNAc
# Outline: as §1
# [21] = target: Fuc(a1-3)[Gal(b1-4)]GlcNAc(b1-3)Gal(b1-3)[Fuc(a1-4)]GlcNAc
# Outline: as §1
# [22] = target: Fuc(a1-3)[Gal(b1-4)]GlcNAc(b1-3)Gal(b1-4)[Fuc(a1-3)]GlcNAc
# Outline: as §1
# [23] = target: Fuc(a1-3)[Gal(b1-4)]GlcNAc(b1-3)Gal(b1-4)[Fuc(a1-3)]GlcNAc(b1-3)Gal(b1-4)[Fuc(a1-3)]GlcNAc
# Outline: as §1
# [24] = target: Fuc(a1-3)[Gal(b1-4)]GlcNAc(b1-3)GalNAc
# Outline: as §1
# [25] = target: Fuc(a1-3)[Gal(b1-4)]GlcNAc(b1-6)GalNAc
# Outline: as §1
# [26] = target: Fuc(a1-3)[Gal(b1-4)]GlcNAc(b1-6)[Gal(b1-3)GlcNAc(b1-3)]Gal(b1-4)Glc
# Outline: as §1
# [27] = target: Fuc(a1-3)[Gal(b1-4)]GlcNAc6S
# Outline: as §1
# [28] = target: Fuc(a1-3)[Gal3S(b1-4)]Glc
# Outline: as §1
# [29] = target: Fuc(a1-3)[Gal3S(b1-4)]GlcNAc
# Outline: as §1
# [30] = target: Fuc(a1-3)[Gal3S(b1-4)]GlcNAc6S
# Outline: as §1
# [31] = target: Fuc(a1-3)[GalNAc(b1-4)]GlcNAc
# Outline: as §1
# [32] = target: Fuc(a1-3)[GalNAc(b1-4)]GlcNAc6S
# Outline: as §1
# Fuc(a1-4)GlcNAc = target: Fuc(a1-4)GlcNAc
# Outline: as §1
# Fuc(b1-3)GlcNAc = target: Fuc(b1-3)GlcNAc
# Outline: as §1
# Gal(a1-2)Gal = target: Gal(a1-2)Gal
# Outline: as §1
# Gal(a1-3)Gal = target: Gal(a1-3)Gal
# Outline: as §1
# Gal(a1-3)Gal(b1-3)GlcNAc = target: Gal(a1-3)Gal(b1-3)GlcNAc
# Outline: as §1
# [33] = target: Gal(a1-3)Gal(b1-3)GlcNAc(b1-2)Man
# Outline: as §1
# [34] = target: Gal(a1-3)Gal(b1-3)GlcNAc(b1-2)Man(a1-3)[Gal(a1-3)Gal(b1-3)GlcNAc(b1-2)Man(a1-6)]Man(b1-4)GlcNAc(b1-4)GlcNAc
# Outline: as §1
# [35] = target: Gal(a1-3)Gal(b1-3)GlcNAc(b1-3)GalNAc
# Outline: as §1
# [36] = target: Gal(a1-3)Gal(b1-3)GlcNAc(b1-6)GalNAc
# Outline: as §1
# [37] = target: Gal(a1-3)Gal(b1-3)[Fuc(a1-4)]GlcNAc(b1-2)Man(a1-3)[Gal(a1-3)Gal(b1-3)[Fuc(a1-4)]GlcNAc(b1-2)Man(a1-6)]Man(b1-4)GlcNAc(b1-4)GlcNAc
# Outline: as §1
# Gal(a1-3)Gal(b1-4)Glc = target: Gal(a1-3)Gal(b1-4)Glc
# Outline: as §1
# Gal(a1-3)Gal(b1-4)GlcNAc = target: Gal(a1-3)Gal(b1-4)GlcNAc
# Outline: as §1
binder,measurement,setting,value
B1,glycan array binding signal (z-score),[1],-0.202
same,glycan array binding signal (z-score),[2],-0.072
same,glycan array binding signal (z-score),[3],-0.074
same,glycan array binding signal (z-score),[4],-0.184
same,glycan array binding signal (z-score),[5],-0.021
same,glycan array binding signal (z-score),[6],0.01
same,glycan array binding signal (z-score),[7],0.011
same,glycan array binding signal (z-score),[8],0.065
same,glycan array binding signal (z-score),[9],-0.059
same,glycan array binding signal (z-score),[10],-0.102
same,glycan array binding signal (z-score),[11],-0.108
same,glycan array binding signal (z-score),[12],-0.123
same,glycan array binding signal (z-score),[13],-0.129
same,glycan array binding signal (z-score),[14],-0.016
same,glycan array binding signal (z-score),[15],-0.192
same,glycan array binding signal (z-score),Fuc(a1-3)GlcNAc,-0.088
same,glycan array binding signal (z-score),[16],0.003
same,glycan array binding signal (z-score),[17],-0.067
same,glycan array binding signal (z-score),[18],-0.12
same,glycan array binding signal (z-score),[19],0.048
same,glycan array binding signal (z-score),[20],-0.018
same,glycan array binding signal (z-score),[21],0.004
same,glycan array binding signal (z-score),[22],-0.081
same,glycan array binding signal (z-score),[23],-0.075
same,glycan array binding signal (z-score),[24],-0.11
same,glycan array binding signal (z-score),[25],-0.105
same,glycan array binding signal (z-score),[26],-0.125
same,glycan array binding signal (z-score),[27],0.023
same,glycan array binding signal (z-score),[28],-0.089
same,glycan array binding signal (z-score),[29],-0.05
same,glycan array binding signal (z-score),[30],-0.107
same,glycan array binding signal (z-score),[31],-0.1
same,glycan array binding signal (z-score),[32],0.075
same,glycan array binding signal (z-score),Fuc(a1-4)GlcNAc,-0.083
same,glycan array binding signal (z-score),Fuc(b1-3)GlcNAc,-0.051
same,glycan array binding signal (z-score),Gal(a1-2)Gal,-0.177
same,glycan array binding signal (z-score),Gal(a1-3)Gal,-0.044
same,glycan array binding signal (z-score),Gal(a1-3)Gal(b1-3)GlcNAc,-0.117
same,glycan array binding signal (z-score),[33],0.01
same,glycan array binding signal (z-score),[34],-0.098
same,glycan array binding signal (z-score),[35],-0.004
same,glycan array binding signal (z-score),[36],-0.03
same,glycan array binding signal (z-score),[37],-0.042
same,glycan array binding signal (z-score),Gal(a1-3)Gal(b1-4)Glc,0.027
same,glycan array binding signal (z-score),Gal(a1-3)Gal(b1-4)GlcNAc,-0.077
